# “And” between values parts separate entries of the source, which are not always exact repeats. Identical values can stand only once. Inconclusive results, whose numbers are uncertain, are shown with a selection of clear calls. For some of these results: A potency beside an inconclusive call is a rough fit, not a confirmed value. More than one record can exist for a structure, and the calls need not agree. The source made the active and inactive calls. Unless noted, calls follow the shape of the dose curve; as a rule, active = well fitted curve in the direction sought with a large enough effect in the repeat runs; inconclusive = weak or mixed curves; inactive = no such curve, though single readings can be large; an effect the other way counts as inactive or inconclusive.
# Tests used:
# [1] = qHTS assay to identify small molecule agonists of the estrogen receptor beta (ER-beta) signaling pathway - cell viability counter screen (AID 1259380); also: nearly all actives have a fitted effect of over 30% in size
# Summary of the method: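 Same-well viability counter screen. Cells: ER-beta-UAS-bla HEK293T, plated 6 hr before compound, in 2% charcoal-stripped FBS. Compound exposure 16 hr, 37C; viability by CellTiter-Glo luminescence after 30 min at room temperature.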
# [2] = target: Thyrotropin receptor (Homo sapiens) (UniProt P16473); test: qHTS assay to identify small molecule antagonists of the thyroid stimulating hormone receptor (TSHR) signaling pathway (AID 1259385; calls by dose curve; also: nearly all actives have a fitted effect of over 20% in size); details: TSHR-HEK293 cAMP HTRF, TSH-stimulated antagonist mode; activity change, negative = inhibition: at 92.4 µM (top of the series) unless noted
# Sequence of UniProt P16473 (P16473 whole entry, looked up): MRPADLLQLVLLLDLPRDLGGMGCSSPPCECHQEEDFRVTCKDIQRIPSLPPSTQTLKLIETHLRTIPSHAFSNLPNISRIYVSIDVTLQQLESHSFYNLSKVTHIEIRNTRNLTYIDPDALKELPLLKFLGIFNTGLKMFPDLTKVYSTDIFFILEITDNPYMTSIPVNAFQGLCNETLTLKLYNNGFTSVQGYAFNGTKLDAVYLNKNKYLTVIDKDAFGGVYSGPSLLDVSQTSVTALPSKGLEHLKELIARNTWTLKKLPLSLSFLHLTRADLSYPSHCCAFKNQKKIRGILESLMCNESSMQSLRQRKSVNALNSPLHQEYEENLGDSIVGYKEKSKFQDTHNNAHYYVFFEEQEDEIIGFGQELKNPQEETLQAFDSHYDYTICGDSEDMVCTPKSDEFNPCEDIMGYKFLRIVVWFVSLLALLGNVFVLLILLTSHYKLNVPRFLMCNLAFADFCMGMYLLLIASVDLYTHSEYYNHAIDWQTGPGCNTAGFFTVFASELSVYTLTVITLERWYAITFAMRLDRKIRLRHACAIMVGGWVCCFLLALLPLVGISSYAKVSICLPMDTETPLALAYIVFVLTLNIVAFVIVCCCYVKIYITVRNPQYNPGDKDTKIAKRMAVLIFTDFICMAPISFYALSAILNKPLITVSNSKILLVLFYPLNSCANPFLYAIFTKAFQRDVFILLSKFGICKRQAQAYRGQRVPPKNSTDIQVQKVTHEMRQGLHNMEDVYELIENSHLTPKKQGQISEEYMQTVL
# Summary of the method: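 TSHR-HEK293 cells (800/well) plated 18 h, then compounds with Ro20-1724 and TSH at 1.5 ng/mL final, 30 min at room temperature. cAMP quantified by HTRF (cAMP-d2/anti-cAMP-cryptate, 1 h); 15 concentrations in triplicate.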
# [3] = qHTS assay to identify small molecule agonists of the progesterone receptor (PR) signaling pathway - cell viability counter screen (AID 1346799; calls by dose curve; also: nearly all actives have a fitted effect of over 45% in size)
# Summary of the method: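 Counter screen in the PR-UAS-bla HEK293T wells (2% charcoal-stripped FBS, 16 h compound exposure at 37 C) after the bla read. CellTiter-Glo added, 30 min at room temperature, luminescence read as cell viability.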
# [4] = qHTS assay to identify small molecule antagonists of the TGF-beta/Smad signaling pathway (AID 1346924; active = well fitted inhibition curve with a large enough effect in the signal ratio in the repeat runs, not every such curve was filed as active; inconclusive = weak or mixed curves; the % refers to the signal ratio); details: SBE-bla HEK293T, TGF-beta/Smad reporter, beta-lactamase ratio; activity, negative = inhibition: at 76.8 µM (top of the series) unless noted
# Summary of the method: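 SBE-bla HEK 293T cells were plated overnight, then received compound in DMSO plus TGF-beta1 (added as a 0.25 ng/mL solution) and were incubated 5 h at 37 C. Beta-lactamase reporter activity was read after 2 h at room temperature with LiveBLAzer B/G FRET substrate (ex 405, em 460/530 nm).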
# [5] = qHTS assay to identify small molecule agonists of the estrogen receptor alpha (ER-alpha) signaling pathway in the presence of an antagonist - cell viability counter screen (AID 1259386);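 also: cells exposed to compounds for 22 h at 37 °C before the viability read; nearly all actives have a fitted effect of over 30% in size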
# Summary of the method: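 Cells are starved of estrogens for 5 days in charcoal-stripped serum, seeded for 24hr and co-treated with ICI-182,780 (10.0nM final) and test compounds. After 22hr at 37C, viability is read as CellTiter-Fluor fluorescence.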
# [6] = target: Progesterone receptor (Homo sapiens) (UniProt P06401); test: qHTS assay to identify small molecule agonists of the progesterone receptor (PR) signaling pathway (AID 1346784; calls by dose curve; also: nearly all actives have a fitted effect of over 30% in size; as to activation: % is scaled to controls: 0 for no effect and ±100 for the full control effect); details: PR-UAS-bla HEK293T, beta-lactamase FRET ratio, 16 h; activation: at 92.4 µM (top of the series) unless noted
# Sequence of UniProt P06401 (P06401 whole entry, looked up): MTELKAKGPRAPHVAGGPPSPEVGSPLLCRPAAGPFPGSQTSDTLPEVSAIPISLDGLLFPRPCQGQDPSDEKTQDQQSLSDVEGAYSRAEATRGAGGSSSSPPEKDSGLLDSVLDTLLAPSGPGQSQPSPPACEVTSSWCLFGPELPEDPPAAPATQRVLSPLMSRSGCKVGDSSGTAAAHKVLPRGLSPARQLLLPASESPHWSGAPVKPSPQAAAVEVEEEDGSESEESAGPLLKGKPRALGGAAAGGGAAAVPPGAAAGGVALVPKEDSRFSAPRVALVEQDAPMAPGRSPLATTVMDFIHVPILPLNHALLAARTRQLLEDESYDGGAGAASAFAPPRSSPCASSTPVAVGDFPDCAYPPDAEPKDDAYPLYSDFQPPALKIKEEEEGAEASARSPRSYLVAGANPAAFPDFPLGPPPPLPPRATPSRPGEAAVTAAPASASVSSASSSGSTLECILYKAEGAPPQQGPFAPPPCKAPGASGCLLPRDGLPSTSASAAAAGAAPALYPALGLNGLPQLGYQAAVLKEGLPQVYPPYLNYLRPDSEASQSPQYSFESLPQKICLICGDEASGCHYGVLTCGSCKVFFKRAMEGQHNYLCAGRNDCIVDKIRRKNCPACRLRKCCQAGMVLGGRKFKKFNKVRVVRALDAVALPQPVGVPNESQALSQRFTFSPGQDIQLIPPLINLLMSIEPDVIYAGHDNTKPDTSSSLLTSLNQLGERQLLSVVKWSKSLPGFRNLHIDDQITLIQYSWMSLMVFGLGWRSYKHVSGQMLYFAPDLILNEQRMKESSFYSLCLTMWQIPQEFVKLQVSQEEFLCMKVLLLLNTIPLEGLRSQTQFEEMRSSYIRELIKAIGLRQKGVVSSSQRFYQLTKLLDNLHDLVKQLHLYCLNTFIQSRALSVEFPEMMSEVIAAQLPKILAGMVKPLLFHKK
# Summary of the method: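 PR-UAS-bla HEK 293T cells (beta-lactamase reporter under UAS) in 2% charcoal-stripped FBS, dosed with 23 nL compound after 6 hr, incubated 16hr at 37C. LiveBLAzer B/G FRET substrate added, fluorescence read after 2 hours.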
# [7] = target: Progesterone receptor (Homo sapiens) (UniProt P06401); test: qHTS assay to identify small molecule antagonists of the progesterone receptor (PR) signaling pathway (AID 1346795; active = well fitted inhibition curve with a large enough effect in the signal ratio in the repeat runs, not every such curve was filed as active; inconclusive = weak or mixed curves; the % refers to the signal ratio; as to activity change, negative = inhibition: % is scaled to controls: 0 for no effect and ±100 for the full control effect); details: PR-UAS-bla HEK293T, beta-lactamase FRET ratio, 16 h; activity change, negative = inhibition: at 92.4 µM (top of the series) unless noted
# Summary of the method: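 PR-UAS-bla HEK293T cells with beta-lactamase reporter under UAS control, in 2% charcoal-stripped FBS, treated with compounds plus 1 nM promegestone (R5020, final) for 16 hr at 37C. Read-out: FRET beta-lactamase substrate fluorescence after 2 hr at room temperature.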
# [8] = qHTS assay to identify small molecule agonists of the TGF-beta/Smad signaling pathway - cell viability counter screen (AID 1346829); also: nearly all actives have a fitted effect of over 45% in size
# Summary of the method: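 Luminescence from CellTiter-Glo, read after a 30 min room-temperature incubation, gives cell viability of SBE-bla HEK 293T cells treated 5 hr with compounds at 37 C.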
# [9] = qHTS assay to identify small molecule agonists of the TGF-beta/Smad signaling pathway (AID 1346859; active = well fitted activation curve with a large enough effect in the signal ratio in the repeat runs, not every such curve was filed as active; inconclusive = weak or mixed curves; the % refers to the signal ratio); details: SBE-bla HEK293T, TGF-beta/Smad beta-lactamase reporter, 5 h; activation: at 76.8 µM (top of the series)
# Summary of the method: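 SBE-bla HEK293T cells plated overnight, then compound exposure for 5 h at 37 C. Beta-lactamase reporter read with LiveBLAzer B/G FRET substrate after 2 h at room temperature, fluorescence at 405 nm excitation, 460/530 nm emission.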
# [10] = Human pregnane X receptor (PXR) small molecule agonists, qHTS cell viability counter screen (AID 1346977); also: nearly all actives have a fitted effect of over 50% in size
# Summary of the method: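 PXR-Luc HepG2 cells (2,000/well, 5% charcoal-stripped FBS) preincubated 5 hr, then exposed to compounds 24 hr at 37 C. Viability read in the same wells by CellTiter-Fluor fluorescence, reagent added at 23 hr, 1 hr incubation.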
# [11] = target: Estrogen receptor (Homo sapiens) (UniProt P03372); test: qHTS assay to identify small molecule agonists of the estrogen receptor alpha (ER-alpha) signaling pathway in the presence of an antagonist (AID 1259383; calls by dose curve; also: nearly all actives have a fitted effect of over 15% in size)
# Sequence of UniProt P03372 (P03372 whole entry, looked up): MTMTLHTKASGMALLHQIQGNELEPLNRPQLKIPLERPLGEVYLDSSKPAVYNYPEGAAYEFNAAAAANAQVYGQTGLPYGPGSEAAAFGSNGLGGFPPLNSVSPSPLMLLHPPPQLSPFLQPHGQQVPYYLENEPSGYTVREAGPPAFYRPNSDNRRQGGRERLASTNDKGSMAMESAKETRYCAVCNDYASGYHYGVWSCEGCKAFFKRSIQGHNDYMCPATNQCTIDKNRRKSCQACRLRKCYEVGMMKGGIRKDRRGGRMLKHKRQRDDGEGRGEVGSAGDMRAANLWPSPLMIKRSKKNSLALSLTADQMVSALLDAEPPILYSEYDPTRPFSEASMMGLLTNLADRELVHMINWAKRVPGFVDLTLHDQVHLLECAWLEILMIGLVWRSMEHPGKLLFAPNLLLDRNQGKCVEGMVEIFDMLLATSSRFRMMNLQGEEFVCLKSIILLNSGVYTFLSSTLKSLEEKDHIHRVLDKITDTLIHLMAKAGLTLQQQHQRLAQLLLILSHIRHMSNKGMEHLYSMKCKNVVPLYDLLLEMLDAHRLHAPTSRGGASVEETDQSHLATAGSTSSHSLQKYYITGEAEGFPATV
# Summary of the method: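 Cells are hormone-deprived for 5 days (charcoal-stripped FBS, no phenol red), plated for 24hr, spiked with 10.0nM ICI-182,780, then dosed at 15 concentrations. After 22hr at 37C, ONE-Glo luminescence reports ERE-luciferase activity.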
# [12] = qHTS assay to identify small molecule antagonists of the progesterone receptor (PR) signaling pathway - cell viability counter screen (AID 1346798); also: nearly all actives have a fitted effect of over 50% in size
# Summary of the method: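 PR-UAS-bla HEK293T cells, 3,000/well in 2% charcoal-stripped FBS medium, dosed with compounds plus R5020 agonist and incubated 16 h at 37C. Viability then measured in the same wells by CellTiter-Glo luminescence after 30 min at RT.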
# [13] = qHTS assay to identify small molecule antagonists of the TGF-beta/Smad signaling pathway - cell viability counter screen (AID 1346824); also: nearly all actives have a fitted effect of over 50% in size
# Summary of the method: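 SBE-bla HEK 293T cells, incubated overnight, then compound plus 0.25 ng/mL TGF-beta1 (stock added) for 5 hr at 37 C. Viability was read in the same wells by CellTiter-Glo luminescence after 30 min at room temperature.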
# [14] = target: Thyrotropin-releasing hormone receptor (Homo sapiens) (UniProt P34981); test: qHTS assay to identify small molecule antagonists of the thyrotropin-releasing hormone receptor (TRHR) signaling pathway (AID 1346877; active = well fitted inhibition curve with a large enough effect in the repeat runs, not every such curve was filed as active; inconclusive = weak or mixed curves)
# Sequence of UniProt P34981 (P34981 whole entry, looked up): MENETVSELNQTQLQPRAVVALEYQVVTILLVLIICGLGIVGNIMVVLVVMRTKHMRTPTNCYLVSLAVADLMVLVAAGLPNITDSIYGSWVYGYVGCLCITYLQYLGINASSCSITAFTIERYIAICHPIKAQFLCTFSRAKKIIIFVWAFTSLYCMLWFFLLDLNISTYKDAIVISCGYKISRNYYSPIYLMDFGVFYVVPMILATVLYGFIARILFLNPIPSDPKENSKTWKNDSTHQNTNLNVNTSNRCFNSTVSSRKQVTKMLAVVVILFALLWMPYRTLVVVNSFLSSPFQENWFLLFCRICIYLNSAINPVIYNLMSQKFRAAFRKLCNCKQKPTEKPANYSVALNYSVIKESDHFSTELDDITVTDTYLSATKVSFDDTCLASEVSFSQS
# Summary of the method: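 Cells (TRHR-HEK293) are plated and kept 18 h at 37 °C/5% CO2. A calcium-sensitive dye is added for 2 h, compound follows for 5 min at room temperature, and TRH is then given at 1 nM final.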
# [15] = Caspase-3/7 induction in HepG2 cells by small molecules, qHTS assay (AID 1346978); also: nearly all actives have a fitted effect of over 15% in size
# Summary of the method: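 Wild-type HepG2 cells, 2,000/well, settled 5 hr at 37 C and 5% CO2, then compound-treated for 17 hr; caspase-3/7 activity read by luminescent Caspase-Glo 3/7 after 30 min at room temperature.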
# [16] = Caspase-3/7 induction in CHO-K1 cells by small molecules, qHTS assay (AID 1346980); also: nearly all actives have a fitted effect of over 15% in size
# Summary of the method: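 Wild-type CHO-K1 cells exposed to compounds for 17hr at 37 C, 5% CO2. Caspase-3/7 activity then measured by Caspase-Glo 3/7 luminescence after 30min at room temperature.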
# Potency is read from the fitted curve at half-maximal effect; tags tell the direction and shape of the fitted curve or compound fluorescence and quenching.
structure (smiles),measurement,setting,value
COP(=O)(OC)SCn1c(=O)oc2cc(Cl)cnc21,Potency,[1],inconclusive: 68.6 µM [cytotoxic]
same,Potency,[2],"inconclusive: 68.6 µM [falling, partial curve, poor fit]"
same,Potency,[3],inactive
same,"activity, negative = inhibition",[4],inconclusive: 1.02%
CCCCCCCCCCCCCCn1cc[n+](C)c1,Potency,[1],"inconclusive: 61.1 µM [cytotoxic, single point]"
same,Potency,[5],"active: 15.4 µM and active: 24.1 µM and inconclusive: 68.5 µM [cytotoxic, single point]"
same,Potency,[6],"inconclusive: 77.1 µM [cytotoxic, single point] and inconclusive: 76.1 µM [cytotoxic, single point]"
same,Potency,[7],inconclusive: 24.4 µM and inconclusive: 27 µM
same,Potency,[3],active: 30.7 µM and active: 42.8 µM
same,Potency,[8],active: 49.1 µM and active: 38.5 µM and inactive
same,Potency,[9],"inconclusive: 12.3 µM [rising, partial curve] and inconclusive: 17.2 µM [rising, partial curve]"
same,Potency,[4],"inconclusive: 15.5 µM [rising, full curve] and inconclusive: 19.3 µM [rising, full curve]"
same,Potency,[10],"inconclusive: 30.6 µM [cytotoxic, partial curve]"
CC(C)(C)c1cc(O)ccc1O,Potency,[1],inactive
same,Potency,[11],"inconclusive: 61.1 µM [activator, partial curve, poor fit]"
same,"activity change, negative = inhibition",[7],inconclusive: -31.5%
same,Potency,[8],"inconclusive: 38.9 µM [rising, partial curve]"
same,"activity, negative = inhibition",[4],inconclusive: 18% and inconclusive: 8%
same,Potency,[10],"inconclusive: 70.8 µM [cytotoxic, single point]"
CCCCCCCCCC[N+](C)(C)CCCCCCCCCC,Potency,[1],active: 15.4 µM
same,Potency,[2],"inconclusive: 68.6 µM [falling, single point]"
same,Potency,[6],"inconclusive: 30.6 µM [cytotoxic, full curve]"
same,Potency,[7],"inconclusive: 30.6 µM [falling, full curve]"
same,Potency,[12],active: 19.3 µM
same,Potency,[3],active: 8.63 µM
same,Potency,[13],active: 43.6 µM
same,Potency,[8],active: 38.9 µM
same,Potency,[9],inconclusive: 54.9 µM [single point]
same,Potency,[14],"inconclusive: 30.1 µM [inhibitor, single point]"
same,Potency,[10],active: 27.3 µM
same,Potency,[15],"inconclusive: 27.3 µM [activator, single point]"
same,Potency,[16],"inconclusive: 27.3 µM [activator, single point]"
CCCCCCCCn1sccc1=O,Potency,[1],active: 30.7 µM and active: 28.6 µM
same,Potency,[2],active: 61.3 µM and active: 71.9 µM
same,Potency,[5],"inconclusive: 68.7 µM [cytotoxic, single point] and inconclusive: 45.4 µM [cytotoxic, partial curve, poor fit]"
same,activation,[6],inconclusive: -23%
same,Potency,[7],active: 34.4 µM and active: 1.43 µM
same,Potency,[12],active: 48.7 µM and active: 1.14 µM
same,Potency,[3],"active: 43.4 µM and inconclusive: 6.41 µM [cytotoxic, full curve, poor fit]"
same,Potency,[13],active: 49.1 µM and active: 51.3 µM
same,Potency,[8],"inconclusive: 55.1 µM [cytotoxic, single point] and inconclusive: 57.6 µM [cytotoxic, single point]"
same,Potency,[9],"inconclusive: 61.8 µM [rising, partial curve, poor fit]"
same,Potency,[14],"inconclusive: 30.2 µM [inhibitor, partial curve] and inconclusive: 28.2 µM [inhibitor, partial curve]"
